Assay results reported in a collection of fitness landscapes (doi:10.1126/science.1257360).
This is one part of the list.

B1: PhoQ; a variant is named by its letters at X, in order, P23837 (parent)
chain: MKKLLRLFFPLSLRVRFLLATAAVVLVLSLAYGMVALIGYSVSFDKTTFRLLRGESNLFYTLAKWENNKLHVELPENIDKQSPTMTLIYDENGQLLWAQRDVPWLMKMIQPDWLKSNGFHEIEADVNDTSLLLSGDHSIQQQLQEVREDDDDAEMTHSVAVNVYPATSRMPKLTIVVVDTIPVELKSSYMVWSWFIYVLSANLLLVIPLLWVAAWWSLRPIEALAKEVRELEEHNRELLNPATTRELTSLVRNLNRLLKSERERYDKYRTTLTDLTHSLKTPLXXLQXXLRSLRSEKMSVSDAEPVMLEQISRISQQIGYYLHRASMRGGTLLSRELHPVAPLLDNLTSALNKVYQRKGVNISLDISPEISFVGEQNDFVEVMGNVLDNACKYCLEFVEISARQTDEHLYIVVEDDGPGIPLSKREVIFDRGQRVDTLRPGQGVGLAVAREITEQYEGKIVAGESMLGGARMEVIFGRQHSAPKDE

Variants of: B1
Test: enrichment ratio after two sorts for PhoP signalling (ratio (wild type AVST 3.29)); higher = more functional
Details: with PhoP (E. coli)

Variant	enrichment ratio
DDNP	≤ 0.25
MMTI	≤ 0.25
FSYY	≤ 0.25
SFCP	≤ 0.25
IARM	≤ 0.25
WKPD	≤ 0.25
ALCM	7.37
TKAA	1.26
PPLK	≤ 0.25
GFMN	≤ 0.25
TDMD	≤ 0.25
KRIF	≤ 0.25
YTWL	≤ 0.25
NLWQ	≤ 0.25
YHAM	≤ 0.25
RKSD	≤ 0.25
GIYP	≤ 0.25
FGWK	≤ 0.25
VLHW	≤ 0.25
SIGP	≤ 0.25
WKII	≤ 0.25
QWTI	≤ 0.25
ECFL	≤ 0.25
HYAD	≤ 0.25
YPPM	≤ 0.25
PAQC	≤ 0.25

Variant	enrichment ratio
MAEP	≤ 0.25
CLYL	≤ 0.25
YFHL	≤ 0.25
GDVY	≤ 0.25
EKPM	≤ 0.25
EPHD	≤ 0.25
MVCW	≤ 0.25
YYPD	≤ 0.25
HFTG	≤ 0.25
IYMM	0.427
KMEH	≤ 0.25
AHIM	≤ 0.25
LVPH	≤ 0.25
LAAT	≤ 0.25
MASL	5.29
NEGF	≤ 0.25
KNPW	≤ 0.25
YFVI	≤ 0.25
WHLT	≤ 0.25
GTGR	≤ 0.25
TMSA	15.1
AWVT	≤ 0.25
YKYR	≤ 0.25
NSGD	≤ 0.25
PLYI	≤ 0.25
WNCY	≤ 0.25

Variant	enrichment ratio
ICPG	≤ 0.25
DMVP	≤ 0.25
TGCE	24.6
WHKD	≤ 0.25
LEMC	2.61
KGFG	≤ 0.25
GETW	≤ 0.25
NTWN	≤ 0.25
TEAI	20.4
MQCC	11.8
HALS	≤ 0.25
LVKI	≤ 0.25
WPIE	≤ 0.25
KASM	≤ 0.25
GYFC	≤ 0.25
SGGN	≤ 0.25
IIYN	≤ 0.25
DDRY	≤ 0.25
SIFF	≤ 0.25
VHQD	≤ 0.25
NAPF	≤ 0.25
WCLE	≤ 0.25
KIHI	≤ 0.25
ENSW	≤ 0.25
FGFS	≤ 0.25
LFMC	≤ 0.25

Variant	enrichment ratio
NEQI	≤ 0.25
MMHA	≤ 0.25
IDHY	≤ 0.25
RVTW	≤ 0.25
GSFN	≤ 0.25
EPTR	≤ 0.25
DLWQ	≤ 0.25
YRFI	≤ 0.25
LSGY	≤ 0.25
VSCR	≤ 0.25
FSAE	1.19
KVDS	≤ 0.25
HDLL	≤ 0.25
TSPF	≤ 0.25
SYHG	≤ 0.25
VHTR	≤ 0.25
ELWW	≤ 0.25
LEDN	≤ 0.25
LFYP	≤ 0.25
ISPG	≤ 0.25
KIVS	≤ 0.25
HWYD	≤ 0.25
FLMP	≤ 0.25
PQMQ	≤ 0.25
YMII	≤ 0.25
RYIQ	≤ 0.25

Variant	enrichment ratio
SKDS	≤ 0.25
IIWV	≤ 0.25
PMYH	≤ 0.25
IYPW	≤ 0.25
ETPW	≤ 0.25
GIIQ	6.31
WVNH	≤ 0.25
DFVF	≤ 0.25
PHDF	≤ 0.25
FKLF	≤ 0.25
TQDW	≤ 0.25
EHEC	≤ 0.25
NSQT	≤ 0.25
FPTN	≤ 0.25
HVPM	≤ 0.25
DGRL	≤ 0.25
RRRF	≤ 0.25
NFHH	≤ 0.25
TFPH	≤ 0.25
ESGW	≤ 0.25
QDMK	≤ 0.25
VLRC	≤ 0.25
DAIH	≤ 0.25
MQEC	≤ 0.25
FWCA	≤ 0.25
NHPR	≤ 0.25

Variant	enrichment ratio
VPNR	≤ 0.25
LIYW	≤ 0.25
HDQT	≤ 0.25
EMTE	≤ 0.25
RAMF	≤ 0.25
KYVH	≤ 0.25
DGPG	≤ 0.25
HGHN	≤ 0.25
LCHI	≤ 0.25
QGSM	9.07
DDAI	≤ 0.25
SFPT	≤ 0.25
WNYW	≤ 0.25
NKCL	≤ 0.25
RSQW	0.274
LTYQ	4.75
VKLK	≤ 0.25
RTDA	≤ 0.25
WYNN	≤ 0.25
YADD	≤ 0.25
NYHH	≤ 0.25
RYHF	≤ 0.25
YKWF	≤ 0.25
